Measured values as given in a compilation of properties of binary mixtures (doi:10.1039/c8ra04127j).
Some of these densities may be calculated back from excess volumes.

Experiment: xn = mol fraction of the nth substance listed
Settings: 100 kPa

C[N+](C)(C)CCC[N+]1(C)CCCCC1.N#C[N-]C#N.N#C[N-]C#N + CC#N
mass density [kg/m3]
Settings | x1 = 0.0999 | x1 = 0.2001 | x1 = 0.3001 | x1 = 0.3998 | x1 = 0.5002 | x1 = 0.6 | x1 = 0.7001 | x1 = 0.7996 | x1 = 0.8998 | x1 = 1
283.15 K | 936.4 | 1003.8 | 1041.8 | 1065.1 | 1081.5 | 1093 | 1101.5 | 1108.1 | 1113.9 | –
288.15 K | 932.4 | 1000.3 | 1038.6 | 1062 | 1078.4 | 1090.1 | 1098.6 | – | 1111 | 1116
293.15 K | – | 996.9 | 1035.4 | 1058.8 | 1075.4 | 1087.2 | 1095.7 | 1102.2 | 1108.1 | –
298.15 K | 924.4 | 993.4 | – | 1055.7 | – | 1084.3 | 1092.8 | 1099.4 | 1105.3 | –
303.15 K | 920.4 | 990 | 1029 | – | 1069.4 | 1081.4 | 1089.9 | 1096.5 | 1102.5 | 1107.6
308.15 K | – | 986.6 | – | – | – | 1078.5 | 1087.1 | 1093.8 | 1099.7 | 1104.8
313.15 K | 912.5 | – | 1022.7 | 1046.8 | 1063.6 | 1075.6 | 1084.3 | 1091 | – | 1102.1
318.15 K | – | – | 1019.6 | 1043.8 | – | 1072.9 | – | 1088.2 | 1094.2 | –
323.15 K | 904.5 | 976.4 | – | 1040.9 | 1057.6 | – | – | 1085.5 | 1091.5 | 1096.7
328.15 K | 900.5 | – | 1013.3 | 1037.9 | – | – | 1076 | 1082.9 | 1088.8 | 1094
333.15 K | 896.6 | 969.7 | 1010.2 | 1035 | – | 1064.1 | 1073.2 | 1080.3 | – | 1091.4

C[N+](C)(C)CCC[n+]1ccccc1.N#C[N-]C#N.N#C[N-]C#N + CC#N
mass density [kg/m3]
Settings | x1 = 0.0999 | x1 = 0.1999 | x1 = 0.2998 | x1 = 0.3997 | x1 = 0.4999 | x1 = 0.6002 | x1 = 0.7001 | x1 = 0.7998 | x1 = 0.8997 | x1 = 1
283.15 K | 940.9 | 1020.7 | 1070.2 | 1098.7 | 1117.5 | 1130.8 | – | 1150 | 1157.6 | 1164
288.15 K | 937.1 | 1017.1 | 1066.9 | 1095.6 | 1114.3 | 1127.7 | 1138.3 | 1147.1 | – | –
293.15 K | 933.2 | – | 1063.6 | – | 1111.2 | 1124.7 | 1135.2 | 1144.1 | 1151.7 | –
298.15 K | 929.4 | 1009.9 | 1060.3 | 1089.4 | 1108.1 | 1121.6 | 1132.2 | 1141.2 | – | 1155
303.15 K | – | 1006.4 | – | 1086.2 | 1105 | 1118.6 | 1129.2 | – | 1145.9 | 1152.1
308.15 K | 921.5 | – | 1053.7 | 1083.1 | 1102 | 1115.5 | 1126.2 | 1135.2 | 1143 | 1149.2
313.15 K | 917.6 | 999.3 | 1050.5 | 1080 | 1098.9 | 1112.6 | 1123.2 | 1132.3 | 1140.1 | 1146.3
318.15 K | 913.8 | 995.8 | – | 1076.7 | 1096 | 1109.6 | 1120.2 | 1129.3 | 1137.2 | 1143.5
323.15 K | – | 992.3 | 1044 | 1073.5 | 1093.1 | 1106.6 | 1117.4 | 1126.4 | 1134.4 | –
328.15 K | 905.4 | 988.9 | 1040.8 | 1070.4 | 1090.2 | 1103.7 | 1114.5 | 1123.6 | 1131.6 | 1137.9
333.15 K | 901.7 | – | 1037.7 | 1067.4 | 1087.2 | – | 1111.7 | 1120.8 | 1128.9 | 1135.1

CC#N + C[N+](C)(C)CCC[N+]1(C)CCCCC1.N#C[N-]C#N.N#C[N-]C#N
x2 = 0
Settings | mass density [kg/m3]
283.15 K | 792.8
293.15 K | 782.1
308.15 K | 765.8
313.15 K | 760.3
318.15 K | 754.8
323.15 K | 749.2
328.15 K | 743.6

CC#N + C[N+](C)(C)CCC[n+]1ccccc1.N#C[N-]C#N.N#C[N-]C#N
x2 = 0
Settings | mass density [kg/m3]
283.15 K | 792.8
288.15 K | 787.5
293.15 K | 782.1
298.15 K | 776.7
303.15 K | 771.3
308.15 K | 765.8
313.15 K | 760.3
318.15 K | 754.8
323.15 K | 749.2
